# Results taken from paper PMC10043283, “Neuraminidase 1 promotes renal fibrosis development in male mice” (Nature Communications, 2023).
# No constants are given. Whether binding was seen depends on the method and setting. For some assays here: In cells and extracts the contact can be indirect. Some entries that bind do so weakly or less than the wild type. For some assays here: Sequences can lack the tags named with a protein.
# Legend:
# [1] = biological target: HA-NEU1 (neuraminidase 1) (UniProt Q99519); experiment: co-IP; HEK293T cells transfected with HA-NEU1 and Flag-tagged receptor plasmids; lysis in 25 mM Tris-HCl pH 7.4, 150 mM NaCl, 1% NP-40, 1 mM EDTA, 5% glycerol; Flag-tag or HA-tag antibody on Protein A/G magnetic beads; western blot
# [2] = biological target: HA-NEU1 (neuraminidase 1) (UniProt Q99519); experiment: co-IP; co-IP of NEU1 and ALK5 in HEK293T cells transfected with the ALK5_(160-200aa) plasmid as competitor
# [3] = biological target: neuraminidase 1 (NEU1), endogenous (human (endogenous in HK-2 and in human kidney biopsies)) (UniProt Q99519); experiment: proximity ligation; in situ PLA (Duolink) of NEU1 and ALK5 in fixed HK-2 cells transfected with the ALK5_(160-200aa) plasmid; also cells treated with salvianolic acid B (Supplementary Fig. 10b)
# [4] = biological target: neuraminidase 1 (NEU1), endogenous (human (endogenous in HK-2 and in human kidney biopsies)) (UniProt Q99519); experiment: co-IP; HK-2 cells, endogenous proteins, NEU1 or ALK5 antibody on Protein A/G magnetic beads; with or without TGFβ (10 ng/ml, 24 h); also lysate treated with lambda protein phosphatase (Fig. 7i) and cells treated with salvianolic acid B (Supplementary Fig. 10a)
# [5] = biological target: neuraminidase 1 (NEU1), endogenous (human (endogenous in HK-2 and in human kidney biopsies)) (UniProt Q99519); experiment: proximity ligation; in situ PLA (Duolink) on paraffin sections of fibrotic human kidney biopsies, anti-NEU1 and anti-ALK5 antibodies
# NEU1-VC155 = NEU1-VC155 (UniProt Q99519); experiment: split reporter; BiFC in HK-2 cells co-transfected with pBiFC-NEU1-VC155 and pBiFC-ALK5-VN173, with or without TGFβ (10 ng/ml, 24 h); confocal microscopy
# [6] = biological target: Human NEU1 recombinant protein (human) (UniProt Q99519); experiment: SPR; Biacore T200, 25 °C, HBS-EP+ pH 7.4; human NEU1 amine-coupled to CM5 chip (8000–10,000 RU); ALK5 recombinant proteins flowed at 7.80–500 nM; 1:1 binding model; both purified
binder,measurement,setting,value
"Flag-ALK5 (TGFβ type I receptor ALK5) (receptor, UniProt P36897 34-503) LQCFCHLCTKDNFTCVTDGLCFVSVTETTDKVIHNSMCIAEIDLIPRDRPFVCAPSSKTGSVTTTYCCNQDHCNKIELPTTVKSSPGLGPVELAAVIAGPVCFVCISLMLMVYICHNRTVIHHRVPNEEDPSLDRPFISEGTTLKDLIYDMTTSGSGSGLPLLVQRTIARTIVLQESIGKGRFGEVWRGKWRGEEVAVKIFSSREERSWFREAEIYQTVMLRHENILGFIAADNKDNGTWTQLWLVSDYHEHGSLFDYLNRYTVTVEGMIKLALSTASGLAHLHMEIVGTQGKPAIAHRDLKSKNILVKKNGTCCIADLGLAVRHDSATDTIDIAPNHRVGTKRYMAPEVLDDSINMKHFESFKRADIYAMGLVFWEIARRCSIGGIHEDYQLPYYDLVPSDPSVEEMRKVVCEQKLRPNIPNRWQSCEALRVMAKIMRECWYANGAARLTALRIKKTLSQLSQQEGIKM",binding,[1],binds
same,binding,[2],binds
"NEEDPSLDRPFISEGTTLKDLIYDMTTSGSGSGLPLLVQRT (domain or fragment, UniProt P36897 160-200) [Flag-ALK5_(160-200aa)]",binding,[3],binds
same,binding,[1],binds
"TGFβ type I receptor ALK5, endogenous (receptor, UniProt P36897 34-503) LQCFCHLCTKDNFTCVTDGLCFVSVTETTDKVIHNSMCIAEIDLIPRDRPFVCAPSSKTGSVTTTYCCNQDHCNKIELPTTVKSSPGLGPVELAAVIAGPVCFVCISLMLMVYICHNRTVIHHRVPNEEDPSLDRPFISEGTTLKDLIYDMTTSGSGSGLPLLVQRTIARTIVLQESIGKGRFGEVWRGKWRGEEVAVKIFSSREERSWFREAEIYQTVMLRHENILGFIAADNKDNGTWTQLWLVSDYHEHGSLFDYLNRYTVTVEGMIKLALSTASGLAHLHMEIVGTQGKPAIAHRDLKSKNILVKKNGTCCIADLGLAVRHDSATDTIDIAPNHRVGTKRYMAPEVLDDSINMKHFESFKRADIYAMGLVFWEIARRCSIGGIHEDYQLPYYDLVPSDPSVEEMRKVVCEQKLRPNIPNRWQSCEALRVMAKIMRECWYANGAARLTALRIKKTLSQLSQQEGIKM",binding,[3],binds
same,binding,[4],binds
same,binding,[5],binds
"Flag-ALK4 (receptor, UniProt P36896 24-505) SGPRGVQALLCACTSCLQANYTCETDGACMVSIFNLDGMEHHVRTCIPKVELVPAGKPFYCLSSEDLRNTHCCYTDYCNRIDLRVPSGHLKEPEHPSMWGPVELVGIIAGPVFLLFLIIIIVFLVINYHQRVYHNRQRLDMEDPSCEMCLSKDKTLQDLVYDLSTSGSGSGLPLFVQRTVARTIVLQEIIGKGRFGEVWRGRWRGGDVAVKIFSSREERSWFREAEIYQTVMLRHENILGFIAADNKDNGTWTQLWLVSDYHEHGSLFDYLNRYTVTIEGMIKLALSAASGLAHLHMEIVGTQGKPGIAHRDLKSKNILVKKNGMCAIADLGLAVRHDAVTDTIDIAPNQRVGTKRYMAPEVLDETINMKHFDSFKCADIYALGLVYWEIARRCNSGGVHEEYQLPYYDLVPSDPSIEEMRKVVCDQKLRPNIPNWWQSYEALRVMGKMMRECWYANGAARLTALRIKKTLSQLSVQEDVKI",binding,[1],binds
"ALK5-VN173 (receptor, UniProt P36897 34-503) LQCFCHLCTKDNFTCVTDGLCFVSVTETTDKVIHNSMCIAEIDLIPRDRPFVCAPSSKTGSVTTTYCCNQDHCNKIELPTTVKSSPGLGPVELAAVIAGPVCFVCISLMLMVYICHNRTVIHHRVPNEEDPSLDRPFISEGTTLKDLIYDMTTSGSGSGLPLLVQRTIARTIVLQESIGKGRFGEVWRGKWRGEEVAVKIFSSREERSWFREAEIYQTVMLRHENILGFIAADNKDNGTWTQLWLVSDYHEHGSLFDYLNRYTVTVEGMIKLALSTASGLAHLHMEIVGTQGKPAIAHRDLKSKNILVKKNGTCCIADLGLAVRHDSATDTIDIAPNHRVGTKRYMAPEVLDDSINMKHFESFKRADIYAMGLVFWEIARRCSIGGIHEDYQLPYYDLVPSDPSVEEMRKVVCEQKLRPNIPNRWQSCEALRVMAKIMRECWYANGAARLTALRIKKTLSQLSQQEGIKM",binding,NEU1-VC155,binds
"Flag-ALK2 (receptor, UniProt Q04771 21-509) MEDEKPKVNPKLYMCVCEGLSCGNEDHCEGQQCFSSLSINDGFHVYQKGCFQVYEQGKMTCKTPPSPGQAVECCQGDWCNRNITAQLPTKGKSFPGTQNFHLEVGLIILSVVFAVCLLACLLGVALRKFKRRNQERLNPRDVEYGTIEGLITTNVGDSTLADLLDHSCTSGSGSGLPFLVQRTVARQITLLECVGKGRYGEVWRGSWQGENVAVKIFSSRDEKSWFRETELYNTVMLRHENILGFIASDMTSRHSSTQLWLITHYHEMGSLYDYLQLTTLDTVSCLRIVLSIASGLAHLHIEIFGTQGKPAIAHRDLKSKNILVKKNGQCCIADLGLAVMHSQSTNQLDVGNNPRVGTKRYMAPEVLDETIQVDCFDSYKRVDIWAFGLVLWEVARRMVSNGIVEDYKPPFYDVVPNDPSFEDMRKVVCVDQQRPNIPNRWFSDPTLTSLAKLMKECWYQNPSARLTALRIKKTLTKIDNSLDKLKTDC",binding,[1],no binding
"Flag-ALK7 (receptor, UniProt Q8NER5 21-493) ELSPGLKCVCLLCDSSNFTCQTEGACWASVMLTNGKEQVIKSCVSLPELNAQVFCHSSNNVTKTECCFTDFCNNITLHLPTASPNAPKLGPMELAIIITVPVCLLSIAAMLTVWACQGRQCSYRKKKRPNVEEPLSECNLVNAGKTLKDLIYDVTASGSGSGLPLLVQRTIARTIVLQEIVGKGRFGEVWHGRWCGEDVAVKIFSSRDERSWFREAEIYQTVMLRHENILGFIAADNKDNGTWTQLWLVSEYHEQGSLYDYLNRNIVTVAGMIKLALSIASGLAHLHMEIVGTQGKPAIAHRDIKSKNILVKKCETCAIADLGLAVKHDSILNTIDIPQNPKVGTKRYMAPEMLDDTMNVNIFESFKRADIYSVGLVYWEIARRCSVGGIVEEYQLPYYDMVPSDPSIEEMRKVVCDQKFRPSIPNQWQSCEALRVMGRIMRECWYANGAARLTALRIKKTISQLCVKEDCKA",binding,[1],no binding
"Flag-AMHR2 (receptor, UniProt Q16671 18-573) PPNRRTCVFFEAPGVRGSTKTLGELLDTGTELPRAIRCLYSRCCFGIWNLTQDRAQVEMQGCRDSDEPGCESLHCDPSPRAHPSPGSTLFTCSCGTDFCNANYSHLPPPGSPGTPGSQGPQAAPGESIWMALVLLGLFLLLLLLLGSIILALLQRKNYRVRGEPVPEPRPDSGRDWSVELQELPELCFSQVIREGGHAVVWAGQLQGKLVAIKAFPPRSVAQFQAERALYELPGLQHDHIVRFITASRGGPGRLLSGPLLVLELHPKGSLCHYLTQYTSDWGSSLRMALSLAQGLAFLHEERWQNGQYKPGIAHRDLSSQNVLIREDGSCAIGDLGLALVLPGLTQPPAWTPTQPQGPAAIMEAGTQRYMAPELLDKTLDLQDWGMALRRADIYSLALLLWEILSRCPDLRPDSSPPPFQLAYEAELGNTPTSDELWALAVQERRRPYIPSTWRCFATDPDGLRELLEDCWDADPEARLTAECVQQRLAALAHPQESHPFPESCPRGCPPLCPEDCTSIPAPTILPCRPQRSACHFSVQQGPCSRNPQPACTLSPV",binding,[1],no binding
"human ALK5_(1-125aa) recombinant protein (domain or fragment, UniProt P36897 34-125) LQCFCHLCTKDNFTCVTDGLCFVSVTETTDKVIHNSMCIAEIDLIPRDRPFVCAPSSKTGSVTTTYCCNQDHCNKIELPTTVKSSPGLGPVE",binding,[6],no binding (tested: 500 nM)
"human ALK5_(200-503aa) recombinant protein (domain or fragment, UniProt P36897 200-503) TIARTIVLQESIGKGRFGEVWRGKWRGEEVAVKIFSSREERSWFREAEIYQTVMLRHENILGFIAADNKDNGTWTQLWLVSDYHEHGSLFDYLNRYTVTVEGMIKLALSTASGLAHLHMEIVGTQGKPAIAHRDLKSKNILVKKNGTCCIADLGLAVRHDSATDTIDIAPNHRVGTKRYMAPEVLDDSINMKHFESFKRADIYAMGLVFWEIARRCSIGGIHEDYQLPYYDLVPSDPSVEEMRKVVCEQKLRPNIPNRWQSCEALRVMAKIMRECWYANGAARLTALRIKKTLSQLSQQEGIKM",binding,[6],no binding (tested: 500 nM)
